Measurements published in PubChem BioAssay AID1963576 (National Center for Advancing Translational Sciences (NCATS), 2024).
Among all 46,000 compounds or so, about 60 (0.1%) were called active. Another 3% or so got no clear call; they are omitted. Calls come from the whole dose curve; as a rule, active = well fitted inhibition curve with a large enough effect; inconclusive = small, poorly fitted or top-dose-only effect; inactive = no such curve, though single readings can be large or run the other way. The list shows a part of the results.

Assay: Primary qHTS assay for Inhibitors of ovarian cancer metastasis using an organotypic tumor microenvironment (TME) model.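 For activity change, negative = inhibition: plate controls were DMSO wells for no effect and tomatine positive control wells for full effect.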 Note: nearly all actives have a fitted effect of over 65% in size.
Details: SKOV3ip1-GFP adhesion/invasion on 3D omental model, fluorescence; series mostly up to 45.8 µM; activity change, negative = inhibition: at the top concentration
Outline: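 Adhesion/invasion was scored as fixed GFP-labeled SKOV3ip1 cell counts (488/509 nm), normalized to DMSO and tomatine controls. Cancer cells in serum-free medium, with four compound doses (0.36-46 umol/L), sat 2 hr at RT then 16 hr at 37 C on a 48 hr fibroblast/mesothelial/ECM culture.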

SMILES	activity change, negative = inhibition	outcome
Cc1cccc(-n2c(=O)c3c(c4cc(C)ccc4n3C)n(CC(=O)Nc3ccc(C)c(C)c3)c2=O)c1	inactive: 47.3%	–
CC(C)(C)NC(=O)Cn1cc(S(=O)(=O)Cc2ccccc2Cl)c2ccccc21	inactive: -2.85%	–
COc1ccccc1N1CCN(c2c3c(nc4nncn24)CCC3)CC1	inactive: 3.56%	–
COc1ccc(-c2nc(SCC(=O)NCC3CCCO3)c(-c3ccc(C)cc3)[nH]2)cc1OC (stereo unspecified)	inactive: -0.499%	–
CCOC(=O)Cn1c(=N)n(CCOc2ccc(OC)cc2)c2ccccc21	inactive: -4.66%	–
COc1ccc(C)cc1NS(=O)(=O)c1ccc2c(c1)CCCN2C(C)=O	inactive: 5.05%	–
Cc1ccc(N(C)S(=O)(=O)c2nnc(NC(=O)c3ccco3)s2)cc1	inactive: -6.8%	–
COc1ccc(-c2c(C#N)c(SCC(=O)Nc3ccc(C)c(C)c3)nc(C)c2C(=O)Nc2ccccc2)cc1OC	inactive: -2.74%	–
CCCCNC(=O)CN1CCN(c2ccc(NC(=O)c3ccc(OC)cc3)cc2C(=O)O)CC1	inactive: -4.34%	–
COc1ccc(NC(=O)N2CCN(Cc3nc4ccc(C)cc4o3)CC2)cc1OC	–	inactive
CCc1ccc(C2c3c(-c4cc(C)ccc4O)n[nH]c3C(=O)N2CCO)cc1 (stereo unspecified)	inactive: 0.477%	–
Cn1c(SCC(=O)N2CCOCC2)ncc(C(=O)Nc2ccc(F)cc2)c1=O	inactive: 6.74%	–
CCc1ccc(NCc2cc3cc4c(cc3n(CC(=O)Nc3ccc(OC)cc3)c2=O)OCO4)cc1	inactive: 8.24%	–
CC1=C(c2ccc(C(C)C)cc2)S(=O)(=O)NC1=NCc1ccc(OC(C)C)cc1	–	inactive
COc1ccc(NC(=O)CCCS(=O)(=O)c2nc(-c3ccccc3OC)cc(C(F)(F)F)n2)c(OC)c1	inactive: 6.3%	–
CCOC(=O)c1c(S(=O)(=O)NCC(=O)Nc2cccc(SC)c2)c(C)n(C)c1C	inactive: -40.5%	–
CCCSc1nc2sc3c(c2c(=O)n1-c1ccc(C)cc1)CCCC3	inactive: 1.55%	–
COc1ccc(C(C)NC(=O)CN(c2cc(OC)ccc2OC)S(=O)(=O)c2ccccc2)cc1 (stereo unspecified)	inactive: 24%	–
CC1CCN(CCCNC(=O)CN2C(=O)CSc3ccc(S(=O)(=O)N4CCCCC4)cc32)CC1	inactive: 2.01%	–
COc1ccc(-n2c(CC3C(=O)Nc4ccc(C)cc43)nc3ccccc3c2=O)cc1 (stereo unspecified)	inactive: -0.285%	–
O=C(NCc1ccccc1Cl)c1ccc2c(c1)ncn2-c1cccc(F)c1	inactive: -13.2%	–

SMILES	activity change, negative = inhibition	outcome
COc1cccc(-n2ccnc2SCC(=O)Nc2cccc3ccccc23)c1	inactive: 1.75%	–
CCc1cccc(C)c1NC(=O)C1CCN(S(=O)(=O)c2cc(Br)cc3c2N(C(C)=O)CC3)CC1	inactive: 3.23%	–
O=C(c1cccs1)N1CCCc2cc(NS(=O)(=O)c3ccc(Br)cc3)ccc21	inactive: 2.55%	–
COc1ccc(NC(=O)Nc2cccc(-c3noc(C)n3)c2)cc1	inactive: 27.2%	–
COCCn1c(CNC(=O)c2ccccc2C)nc2cccnc21	inactive: 5.38%	–
Cc1ccc(C)c(CN2CCC(CNC(=O)C(CC(C)C)N3Cc4ccccc4C3=O)CC2)c1 (stereo unspecified)	inactive: 5.3%	–
Brc1cccc(-c2nn(-c3ccccc3)c3c2cnc2cc4c(cc23)OCO4)c1	inactive: 12.9%	–
COc1cc(-c2noc(-c3cc4cccc(C)c4oc3=O)n2)cc(OC)c1OC	inactive: -3.93%	–
O=c1c2c3c(sc2nnn1CCCCOc1ccc(Cl)cc1)CCCC3	inactive: -3.5%	–
CCCSC1=NC2(CCN(C(=O)NC3CCCCC3)CC2)N=C1c1ccc(OC)cc1	inactive: -11.8%	–
Cc1nc(-c2cccc(F)c2)sc1CCNC(=O)Cc1ccc(F)cc1	–	inactive
N#C/C(=C/c1ccc(O)cc1)c1nc(-c2ccc(-c3ccccc3)cc2)cs1	inactive: -17.7%	–
O=C(Nc1ccc(F)cc1)c1nc(SCc2ccccc2F)ncc1Cl	inactive: 13.5%	–
COc1ccc(-c2nsc(NC(=O)c3oc4ccc(Cl)cc4c3C)n2)cc1	inactive: -27.3%	–
CCOc1ccccc1-n1c(N)c(C(=O)OC)c2nc3ccccc3nc21	–	inactive
Cc1cc(NC(=O)c2cnn(-c3ccccc3)c2-n2cccc2)ccc1Br	inactive: 0.451%	–
Cn1c(C(=O)NCc2ccccc2Cl)cc2sc(Cl)cc21	inactive: 13.6%	–
Cc1ccc(OCCn2c(CNc3ccccc3C)nc3ccccc32)cc1	inactive: 4.87%	–
Cc1cccc(N(C)C(=O)C2CCC(CNS(=O)(=O)c3cccc4nsnc34)CC2)c1 (stereo unspecified)	inactive: -12.6%	–
COc1cccc(CNC(=O)Cn2c(=O)cc(C)c3c(C)nn(C)c32)c1OC	inactive: 24.1%	–
O=C(NC1CCCCC1)c1ccc2c(c1)N(Cc1ccc(F)cc1)C(=O)c1ccccc1S2(=O)=O	inactive: -3.27%	–

SMILES	activity change, negative = inhibition	outcome
COc1cc(NS(=O)(=O)c2cc(Br)cc3c2N(C(C)=O)C(C)C3)cc(OC)c1 (stereo unspecified)	inactive: -15.8%	–
N#CC1=C(N)N(c2ccc(Cl)cc2)C2=C(C(=O)CCC2)C1c1cc(CN2CCOCC2)cs1 (stereo unspecified)	inactive: 8.33%	–
COc1cccc(-c2nc3c(C#N)c[nH]n3c2NC2CCCCC2)c1	inactive: 1.77%	–
COc1ccc(-c2csc3ncnc(Nc4ccc(OC)cc4OC)c23)cc1	inactive: -19.6%	–
COc1cccc(CNC(=O)CN(c2ccc(C)cc2)S(=O)(=O)N(C)C)c1OC	inactive: 37.5%	–
CCc1cccc(NC(=O)Cn2c(=O)n(CC3CCC(C(=O)NC)CC3)c(=O)c3sccc32)c1 (stereo unspecified)	inactive: 0.891%	–
CCOC(=O)CSc1nnc(-c2ccc(OC)cc2)o1	inactive: 40%	–
COc1cc(C(=O)Nc2cc(C)c(O)c(-c3nc4cc(Cl)ccc4o3)c2)cc(OC)c1OC	–	inactive
CCN(CC)C(=O)c1sc2c(c1C)c(=O)n(-c1ccccc1)c(=O)n2CC(=O)N(CC)c1cccc(C)c1	inactive: 2.3%	–
CCCCN(C)C(=O)CN1C(=O)c2cccnc2Oc2ccc(Cl)cc21	inactive: 7.42%	–
COc1cc(NC(=O)CCS(=O)(=O)c2ccc(Br)cc2)cc(OC)c1	inactive: -9.67%	–
Cc1ccc(CNC(=O)c2ccc3c(c2)NC(=O)C(CS(=O)(=O)Cc2cccc(C)c2)N3)cc1 (stereo unspecified)	inactive: 22.5%	–
Nc1ncnc2c1ncn2[C@@H]1O[C@@H](CO)[C@H](O)[C@H]1O	inactive: 0.28%	–
C=C1C(=CC=C2CCC[C@]3(C)[C@@H]([C@H](C)CCCC(C)(C)O)CC[C@@H]23)C[C@@H](O)C[C@@H]1O	inactive: 0.0997%	–
Cc1cn2c(=O)cc(COC(=O)COc3ccc(C)c(C)c3)nc2s1	inactive: -18.3%	–
CCCOc1ccc(C(=O)N(Cc2ccc(Cl)cc2)Cc2ccco2)cc1	inactive: -3.67%	–
Cc1c(C(=O)N2CCC(C(=O)Nc3ccc(F)c(Cl)c3)CC2)sc2nc[nH]c(=O)c12	inactive: -10.9%	–
Cc1ccc(NC(=O)Cn2c(=O)ccc3cc(S(=O)(=O)N4CCCC4)ccc32)cc1C	inactive: 2.51%	–
COc1ccc(Cn2ccn(CC(=O)Nc3cc(C)ccc3C)c(=O)c2=O)cc1	inactive: -4.15%	–
